Laboratory results from EP0745599A2, “1-(3-Heterocyclylphenyl)-s-triazine-2,4,6-oxo or thiotrione herbicidal agents” (American Cyanamid Company, priority 1995, dated 1996).
At least one read-out could not be matched to a standard name with certainty.

What was measured:
Type in all cases: in vivo
Conditions in all cases: rated four to five weeks after treatment
[1] = test system: TRITICUM AESTIVUM, CV. APOLLO; assay: Postemergence herbicidal evaluation, TRZAWO (Wheat, Winter, CV. APOLLO)
Procedure: (§1) In the tests, seedling plants are grown in jiffy flats for about two weeks. The test compounds are dispersed in 50/50 acetone/water mixtures containing 0.5% TWEEN®20, a polyoxyethylene sorbitan monolaurate surfactant of Atlas Chemical Industries, in sufficient quantities to provide the equivalent of about 0.125 kg to 0.500 kg per hectare of active compound when applied to the plants through a spray nozzle operating at 40 psi for a predetermined time. After spraying, the plants are placed on greenhouse benches and are cared for in the usual manner, commensurate with conventional greenhouse practices. From four to five weeks after treatment, the seedling plants are examined and rated according to the rating system set forth below. Where more than one test is involved for a given compound, the data are averaged.
(§2) Results of herbicide evaluation are expressed on a rating scale (0-9). The scale is based upon a visual observation of plant stand, vigor, malformation, size, chlorosis and overall plant appearance as compared with a control.

[2] = test system: ORYZA SATIVA, L. TEBONNET; assay: Postemergence herbicidal evaluation, ORYSAT (Rice, Tebonnet)
Procedure: as §1, §2

CHENOPODIUM ALBUM, L. = assay: Postemergence herbicidal evaluation, CHEAL (Lambsquarters, Common)
Procedure: as §1, §2

[3] = test system: SETARIA VIRIDIS, (L) BEAU; assay: Postemergence herbicidal evaluation, SETVI (Foxtail, Green)
Procedure: as §1, §2

[4] = test system: AMBROSIA ARTEMISIIFOLIA, L.; assay: Postemergence herbicidal evaluation, AMBEL (Ragweed, Common)
Procedure: as §1, §2

IPOMOEA SPP. = assay: Postemergence herbicidal evaluation, IPOSS (Morningglory Spp.)
CASSIA OBTUSIFOLIA, L. = assay: Postemergence herbicidal evaluation, CASOB (Sicklepod)
Procedure: as §1, §2

[5] = test system: ABUTILON THEOPHRASTI, MEDIC.; assay: Postemergence herbicidal evaluation, ABUTH (Velvetleaf)
Procedure: as §1, §2

[6] = test system: GLYCINE MAX(L)MERR. CV. WILLIAMS; assay: Postemergence herbicidal evaluation, GLXMAW (Soybean, Williams)
Procedure: as §1, §2

ZEA MAYS L. = assay: Postemergence herbicidal evaluation, ZEAMX (Corn, Field)
Procedure: as §1, §2

[7] = test system: ECHINOCHLOA CRUS-GALLI, (L) BEAU; assay: Postemergence herbicidal evaluation, ECHCG (Barnyardgrass)
Procedure: as §1, §2

GALIUM APARINE = assay: Postemergence herbicidal evaluation, GALAP (Galium)

SMILES | Herbicide rating (0-9) TRZAWO ([1]; 0.125 kg/ha) | Herbicide rating (0-9) TRZAWO ([1]; 0.250 kg/ha) | Herbicide rating (0-9) TRZAWO ([1]; 0.500 kg/ha) | Herbicide rating (0-9) ORYSAT ([2]; 0.125 kg/ha) | Herbicide rating (0-9) ORYSAT ([2]; 0.250 kg/ha) | Herbicide rating (0-9) ORYSAT ([2]; 0.500 kg/ha) | Herbicide rating (0-9) CHEAL (CHENOPODIUM ALBUM, L.; 0.125 kg/ha) | Herbicide rating (0-9) CHEAL (CHENOPODIUM ALBUM, L.; 0.250 kg/ha) | Herbicide rating (0-9) CHEAL (CHENOPODIUM ALBUM, L.; 0.500 kg/ha) | Herbicide rating (0-9) SETVI ([3]; 0.125 kg/ha) | Herbicide rating (0-9) SETVI ([3]; 0.250 kg/ha) | Herbicide rating (0-9) SETVI ([3]; 0.500 kg/ha) | Herbicide rating (0-9) AMBEL ([4]; 0.125 kg/ha) | Herbicide rating (0-9) AMBEL ([4]; 0.250 kg/ha) | Herbicide rating (0-9) AMBEL ([4]; 0.500 kg/ha) | Herbicide rating (0-9) IPOSS (IPOMOEA SPP.; 0.125 kg/ha) | Herbicide rating (0-9) IPOSS (IPOMOEA SPP.; 0.250 kg/ha) | Herbicide rating (0-9) IPOSS (IPOMOEA SPP.; 0.500 kg/ha) | Herbicide rating (0-9) CASOB (CASSIA OBTUSIFOLIA, L.; 0.125 kg/ha) | Herbicide rating (0-9) CASOB (CASSIA OBTUSIFOLIA, L.; 0.250 kg/ha) | other results
C=CCn1c(=O)[nH]c(=O)n(-c2cc(N3C(=O)C4=C(CCCC4)C3=O)c(F)cc2Cl)c1=O [Compound 18, N-[5-(3-Allylhexahydro-2,4,6-trioxo-s-triazin-1-yl)-4-chloro-2-fluorophenyl]-1-cyclohexene-1,2-dicarboximide] | 2.5 | 3.5 | 4.5 | 2.0 | 3.0 | 4.0 | 6.0 | 7.0 | 7.0 | 1.0 | 2.0 | 4.0 | 1.0 | 3.0 | 5.0 | 2.0 | 2.0 | 4.0 | 2.0 | 3.0 | Herbicide rating (0-9) CASOB (CASSIA OBTUSIFOLIA, L.; 0.500 kg/ha): 4.0; Herbicide rating (0-9) ABUTH ([5]; 0.125 kg/ha): 0.0; Herbicide rating (0-9) ABUTH ([5]; 0.250 kg/ha): 1.0; Herbicide rating (0-9) ABUTH ([5]; 0.500 kg/ha): 6.0; Herbicide rating (0-9) GLXMAW ([6]; 0.125 kg/ha): 4.0; Herbicide rating (0-9) GLXMAW ([6]; 0.250 kg/ha): 3.5; Herbicide rating (0-9) GLXMAW ([6]; 0.500 kg/ha): 5.5; Herbicide rating (0-9) ZEAMX (ZEA MAYS L.; 0.125 kg/ha): 2.0; Herbicide rating (0-9) ZEAMX (ZEA MAYS L.; 0.250 kg/ha): 3.5; Herbicide rating (0-9) ZEAMX (ZEA MAYS L.; 0.500 kg/ha): 5.0; Herbicide rating (0-9) ECHCG ([7]; 0.125 kg/ha): 0.0; Herbicide rating (0-9) ECHCG ([7]; 0.250 kg/ha): 0.0; Herbicide rating (0-9) ECHCG ([7]; 0.500 kg/ha): 4.0; Herbicide rating (0-9) GALAP (GALIUM APARINE; 0.125 kg/ha): 0.0; Herbicide rating (0-9) GALAP (GALIUM APARINE; 0.250 kg/ha): 2.0; Herbicide rating (0-9) GALAP (GALIUM APARINE; 0.500 kg/ha): 6.0
C#CCn1c(=O)[nH]c(=O)n(-c2cc(N3C(=O)C4=C(CCCC4)C3=O)c(F)cc2Cl)c1=O [Compound 15, N-{4-Chloro-2-fluoro-5-[hexahydro-2,4,6-trioxo-3-(2-propynyl)-s-triazin-1-yl]-phenyl}-1-cyclohexene-1,2-dicarboximide] | 2.0 | 3.0 | 5.0 | 0.0 | 0.0 | 2.0 | 8.0 | 8.0 | 9.0 | 4.0 | 4.0 | 5.0 | 3.0 | 5.0 | 5.0 | 0.0 | 0.0 | 2.0 | 0.0 | 0.0 | Herbicide rating (0-9) CASOB (CASSIA OBTUSIFOLIA, L.; 0.500 kg/ha): 1.0; Herbicide rating (0-9) ABUTH ([5]; 0.125 kg/ha): 0.0; Herbicide rating (0-9) ABUTH ([5]; 0.250 kg/ha): 0.0; Herbicide rating (0-9) ABUTH ([5]; 0.500 kg/ha): 2.0; Herbicide rating (0-9) GLXMAW ([6]; 0.125 kg/ha): 2.0; Herbicide rating (0-9) GLXMAW ([6]; 0.250 kg/ha): 4.0; Herbicide rating (0-9) GLXMAW ([6]; 0.500 kg/ha): 6.0; Herbicide rating (0-9) ZEAMX (ZEA MAYS L.; 0.125 kg/ha): 3.0; Herbicide rating (0-9) ZEAMX (ZEA MAYS L.; 0.250 kg/ha): 5.0; Herbicide rating (0-9) ZEAMX (ZEA MAYS L.; 0.500 kg/ha): 6.0; Herbicide rating (0-9) ECHCG ([7]; 0.125 kg/ha): 3.0; Herbicide rating (0-9) ECHCG ([7]; 0.250 kg/ha): 3.0; Herbicide rating (0-9) ECHCG ([7]; 0.500 kg/ha): 4.0; Herbicide rating (0-9) GALAP (GALIUM APARINE; 0.125 kg/ha): 5.0; Herbicide rating (0-9) GALAP (GALIUM APARINE; 0.250 kg/ha): 5.0; Herbicide rating (0-9) GALAP (GALIUM APARINE; 0.500 kg/ha): 9.0
